Like-named read-outs stand apart in the source and are kept apart here.
T1: human GIPR expressed on HEK293T cells (human, UniProt P48546 22-466)
T1 sequence (looked up): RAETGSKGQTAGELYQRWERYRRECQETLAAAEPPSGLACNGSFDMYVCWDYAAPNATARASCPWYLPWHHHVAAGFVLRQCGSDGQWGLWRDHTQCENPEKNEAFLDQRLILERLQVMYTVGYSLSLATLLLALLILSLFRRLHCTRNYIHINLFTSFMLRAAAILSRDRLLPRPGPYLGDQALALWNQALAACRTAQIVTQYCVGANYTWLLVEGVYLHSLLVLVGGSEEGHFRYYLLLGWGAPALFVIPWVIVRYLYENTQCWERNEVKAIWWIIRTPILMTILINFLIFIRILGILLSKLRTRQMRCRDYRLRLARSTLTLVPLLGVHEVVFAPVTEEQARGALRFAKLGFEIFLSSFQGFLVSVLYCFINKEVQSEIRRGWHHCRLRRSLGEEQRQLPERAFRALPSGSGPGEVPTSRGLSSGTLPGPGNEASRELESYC

T2: GIPR-ECD-chis (a his tag-fused human GIPR extracellular region fragment) (human, UniProt P48546 22-138, limits assumed)
T2 construct: extracellular domain; not shown: his tag
T2 sequence (looked up): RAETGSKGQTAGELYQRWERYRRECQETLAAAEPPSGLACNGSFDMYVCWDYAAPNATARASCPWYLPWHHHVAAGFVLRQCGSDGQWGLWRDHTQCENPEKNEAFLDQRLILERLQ


Experiments:
[1] = target: T1, human GIPR expressed on HEK293T cells; test: cell-based or functional assay
[2] = target: T1, human GIPR expressed on HEK293T cells; test: flow cytometry on 293T-GIPR cells, 10 µg/mL, anti-human IgG-APC
[3] = target: T1, human GIPR expressed on HEK293T cells; test: flow cytometry on 293T-GIPR cells, 100 µg/mL, anti-human IgG-APC
[4] = target: T2, GIPR-ECD-chis (a his tag-fused human …); test: BLI, Fc fusion on AHC sensor, GIPR-ECD-chis in solution
[5] = target: T2, GIPR-ECD-chis (a his tag-fused human …); test: as above; remark: listed apart in the source
[6] = target: T2, GIPR-ECD-chis (a his tag-fused human …); test: as above; remark: listed apart in the source
[7] = target: T2, GIPR-ECD-chis (a his tag-fused human …); test: as above; remark: listed apart in the source

Row | Binder | Kd [4] [nM] | koff [4] [s⁻¹] | kon [4] [M⁻¹ s⁻¹] | Kd [7] [nM] | koff [7] [s⁻¹] | kon [7] [M⁻¹ s⁻¹] | other results
1 | iGI-9-Ld-Fc (Fc fusion, also called iGl-9-Ld-Fc) QVQLVESGGGLVQPGGSLRLSCETSKILFSSAYTMGWYRQAPGKQRELVATITTDYITNYVDSVKGRFTISRDNAKNTVYLQMNTLKLEDTAVYYCNARWGRDYWGQGTQVTVSS[human IgG1 Fc not written out] | – | – | – | – | – | – | MEAN cAMP expression level (pM), +100 ng/mL GIP-C12H4-Fc4, fusion protein 0.1 µg/mL [1]: 92.9 pM; MEAN cAMP expression level (pM), +100 ng/mL GIP-C12H4-Fc4, fusion protein 1 µg/mL [1]: 125 pM; MEAN cAMP expression level (pM), +100 ng/mL GIP-C12H4-Fc4, fusion protein 10 µg/mL [1]: 114 pM; MFI [2]: 6320 MFI; MFI [3]: 6500 MFI
2 | huGI-72v1-Ld-Fc (Fc fusion, also called huG1-72v1 (VHH part)) EVQLVESGGGLVQPGGSLRLSCAASRYTLDYYAIGWFRQAPGKEREGVSCINSKDGSTYYADSVKGRFTISKDNSKNTVYLQMNSLRAEDTAVYYCAAGYDPWSGIPPVQAMCVMGYDYWGQGTLVTVSS[human IgG1 Fc not written out] | 1.17 | 0.00026 | 223000 | – | – | – | –
3 | huGI-72v2-Ld-Fc (Fc fusion, also called huG1-72v2 (VHH part)) EVQLVESGGGLVQPGGSLRLSCAASRYTLDYYAIGWFRQAPGKEREGVSCINSKDGSTYYADSVKGRFTISRDNSKNTVYLQMNSLRAEDTAVYYCAAGYDPWSGIPPVQAMCVMGYDYWGQGTLVTVSS[human IgG1 Fc not written out] | 1.74 | 0.00037 | 212000 | – | – | – | –
4 | huGI-72v3-Ld-Fc (Fc fusion, also called huG1-72v3 (VHH part)) EVQLVESGGGLVQPGGSLRLSCAASRYTLDYYAIGWFRQAPGKGLEGVSCINSKDGSTYYADSVKGRFTISKDNSKNTVYLQMNSLRAEDTAVYYCAAGYDPWSGIPPVQAMCVMGYDYWGQGTLVTVSS[human IgG1 Fc not written out] | 1.56 | 0.000256 | 164000 | – | – | – | –
5 | huGI-72v4-Ld-Fc (Fc fusion, also called huG1-72v4 (VHH part)) EVQLVESGGGLVQPGGSLRLSCAASRYTLDYYAIGWFRQAPGKGLEGVSCINSKDGSTYYADSVKGRFTISRDNSKNTVYLQMNSLRAEDTAVYYCAAGYDPWSGIPPVQAMCVMGYDYWGQGTLVTVSS[human IgG1 Fc not written out] | 0.716 | 0.000119 | 166000 | – | – | – | –
6 | huGI-72v6-Ld-Fc (Fc fusion, also called huG1-72v6 (VHH part)) QVQLVESGGGLVQPGGSLRLSCSASRYTLDYYAIGWFRQAPGKEREGVSCINSKDGSTYYADSVKGRFTISRDNSKNTVYLQMNSLRAEDTAVYYCAAGYDPWSGIPPVQAMCVMGYDYWGQGTLVTVSS[human IgG1 Fc not written out] | 1.23 | 0.000283 | 230000 | – | – | – | –
7 | huGI-72v7-Ld-Fc (Fc fusion, also called huG1-72v7 (VHH part)) QVQLVESGGGLVQPGGSLRLSCSASRYTLDYYAIGWFRQAPGKGLEGVSCINSKDGSTYYADSVKGRFTISKDNSKNTVYLQMNSLRAEDTAVYYCAAGYDPWSGIPPVQAMCVMGYDYWGQGTLVTVSS[human IgG1 Fc not written out] | 1.53 | 0.000276 | 180000 | – | – | – | –
8 | iGI-44-Ld-Fc (Fc fusion) QVQLVESGGGLVQAGGSLKLSCAASGRTFSSKAMGWFRQAPGKEREFVAAINWSGDRTYHVNSIKGRFTISRDNAKNTVYLQMNSLKPEDTAVYYCTADRRDRATIPFQWHYWGQGTQVTVSS[human IgG1 Fc not written out] | – | – | – | – | – | – | MEAN cAMP expression level (pM), +100 ng/mL GIP-C12H4-Fc4, fusion protein 0.1 µg/mL [1]: 131 pM; MEAN cAMP expression level (pM), +100 ng/mL GIP-C12H4-Fc4, fusion protein 1 µg/mL [1]: 114 pM; MEAN cAMP expression level (pM), +100 ng/mL GIP-C12H4-Fc4, fusion protein 10 µg/mL [1]: 122 pM; MFI [2]: 6580 MFI; MFI [3]: 6290 MFI
9 | iGI-51-Ld-Fc (Fc fusion) QVQLVESGGKLVQAGGSLRLDCVASGRTFSYYAIGWYRQAPGKEREFVAAIRASGGSTYYADSVKGRFTASRDNAKNTGYLQMNSLKPEDTAVYFCYAATIVPITPSTHGYWGQGTQVTVSS[human IgG1 Fc not written out] | – | – | – | – | – | – | MEAN cAMP expression level (pM), +100 ng/mL GIP-C12H4-Fc4, fusion protein 0.1 µg/mL [1]: 112 pM; MEAN cAMP expression level (pM), +100 ng/mL GIP-C12H4-Fc4, fusion protein 1 µg/mL [1]: 109 pM; MEAN cAMP expression level (pM), +100 ng/mL GIP-C12H4-Fc4, fusion protein 10 µg/mL [1]: 137 pM; MFI [2]: 5960 MFI; MFI [3]: 5520 MFI
10 | iGI-1198-Ld-Fc (Fc fusion) QVQLQESGGGLVQPGGSLRLSCVASGSGFSIVAMGWYRQTPGKQRELVAAITSGGNTNYADSVKGRFTISRDNAKNTIYLQMNSLKPEDTAVYYCNADPGVVAGPYAGMDFWGKGTQVTVSS[human IgG1 Fc not written out] | – | – | – | 3.5 | 0.000222 | 63400 | Kd [5]: 1.86 nM; koff [5]: 0.000156 s⁻¹; kon [5]: 83900 M⁻¹ s⁻¹; koff [6]: 0.000156 s⁻¹; kon [6]: 83900 M⁻¹ s⁻¹
11 | huGI-1198n4-Ld-Fc (Fc fusion, also called huG1-1198n4 (VHH part)) QVQLVESGGGLVQPGGSLRLSCSASGSGFSIVAMGWVRQAPGKQRELVAAITSGGNTNYADSVKGRFTISRDNSKNTIYLQMNSLRAEDTAVYYCNADPGVVAGPYAGMDFWGKGTTVTVSS[human IgG1 Fc not written out] | – | – | – | – | – | – | Kd [6]: 2.32 nM; koff [6]: 0.000205 s⁻¹; kon [6]: 88100 M⁻¹ s⁻¹
12 | huGI-1198n5-Ld-Fc (Fc fusion, also called huG1-1198n5 (VHH part)) QVQLQESGGGLVQPGGSLRLSCSASGSGFSIVAMGWVRQTPGKQRELVAAITSGGNTNYADSVKGRFTISRDNAKNTIYLQMNSLRAEDTAVYYCNADPGVVAGPYAGMDFWGKGTTVTVSS[human IgG1 Fc not written out] | – | – | – | – | – | – | Kd [6]: 2.09 nM; koff [6]: 0.000169 s⁻¹; kon [6]: 81000 M⁻¹ s⁻¹
13 | huGI-1198n6-Ld-Fc (Fc fusion, also called huG1-1198n6 (VHH part)) QVQLQESGGGLVQPGGSLRLSCSASGSGFSIVAMGWVRQTPGKQRELVAAITSGGNTNYADSVKGRFTISRDNAKNTIYLQMNSLKPEDTAVYYCNADPGVVAGPYAGMDFWGKGTTVTVSS[human IgG1 Fc not written out] | – | – | – | – | – | – | Kd [6]: 2.83 nM; koff [6]: 0.000242 s⁻¹; kon [6]: 85500 M⁻¹ s⁻¹
14 | huGI-1198n7-Ld-Fc (Fc fusion, also called huG1-1198n7 (VHH part)) QVQLVESGGGLVQPGGSLRLSCSASGSGFSIVAMGWYRQTPGKGLELVAAITSGGNTNYADSVKGRFTISRDNSKNTIYLQMNSLRAEDTAVYYCNADPGVVAGPYAGMDFWGKGTTVTVSS[human IgG1 Fc not written out] | – | – | – | 2.46 | 0.0002 | 81400 | –
15 | huGI-1198n8-Ld-Fc (Fc fusion, also called huG1-1198n8 (VHH part)) QVQLQESGGGLVQPGGSLRLSCSASGSGFSIVAMGWYRQTPGKGLELVAAITSGGNTNYADSVKGRFTISRDNSKNTIYLQMNSLRAEDTAVYYCNADPGVVAGPYAGMDFWGKGTTVTVSS[human IgG1 Fc not written out] | – | – | – | 2.94 | 0.000218 | 74200 | –
16 | huGI-1198n9-Ld-Fc (Fc fusion, also called huG1-1198n9 (VHH part)) QVQLVESGGGLVQPGGSLRLSCSASGSGFSIVAMGWYRQTPGKQRELVAAITSGGNTNYADSVKGRFTISRDNSKNTIYLQMNSLRAEDTAVYYCNADPGVVAGPYAGMDFWGKGTTVTVSS[human IgG1 Fc not written out] | – | – | – | 3.7 | 0.000252 | 68000 | –
17 | huGI-1198n10-Ld-Fc (Fc fusion, also called huG1-1198n10 (VHH part)) QVQLQESGGGLVQPGGSLRLSCSASGSGFSIVAMGWYRQTPGKQRELVAAITSGGNTNYADSVKGRFTISRDNAKNTIYLQMNSLRAEDTAVYYCNADPGVVAGPYAGMDFWGKGTTVTVSS[human IgG1 Fc not written out] | – | – | – | 5.42 | 0.000359 | 66300 | –
18 | huGI-1198n11-Ld-Fc (Fc fusion, also called huG1-1198n11 (VHH part)) QVQLQESGGGLVQPGGSLRLSCSASGSGFSIVAMGWYRQTPGKQRELVAAITSGGNTNYADSVKGRFTISRDNAKNTIYLQMNSLKPEDTAVYYCNADPGVVAGPYAGMDFWGKGTTVTVSS[human IgG1 Fc not written out] | – | – | – | 5.1 | 0.000379 | 74400 | –
19 | iGI-27-Ld-Fc (Fc fusion) QVQLVESGGALVQTGGSLRLFCAASGDTICITNMNWYRQAPGKGREFVAAITRSGRTLYADYVKGRFTISRDNARNTMSLQMNSMTSEDTAVYYCNADQNQTICAAEPSAWGRGTQVTVSS[human IgG1 Fc not written out] | – | – | – | – | – | – | MFI [2]: 190 MFI; MFI [3]: 217 MFI

Reference: patent US20260176344A1 (SUZHOU ALPHAMAB, published 2026)
